From US4868195A, “Novel enolamides, pharmaceutical compositions and methods of use thereof for activity as modulators of the arachidonic acid cascade” (Warner-Lambert Company, priority 1988, dated 1989)
At least one read-out could not be matched to a standard name with certainty.

Target: T1, leukotriene receptor (guinea pig lung membranes) (Cavia porcellus, UniProt Q2NNR5)
T1 construct: 20 mg original tissue wet weight of guinea pig lung; tissue Kuiper Rabbit Farm, Gary, IN (animals); host or cells: guinea pig lung, crude membranes
T1 sequence (Q2NNR5 1-340): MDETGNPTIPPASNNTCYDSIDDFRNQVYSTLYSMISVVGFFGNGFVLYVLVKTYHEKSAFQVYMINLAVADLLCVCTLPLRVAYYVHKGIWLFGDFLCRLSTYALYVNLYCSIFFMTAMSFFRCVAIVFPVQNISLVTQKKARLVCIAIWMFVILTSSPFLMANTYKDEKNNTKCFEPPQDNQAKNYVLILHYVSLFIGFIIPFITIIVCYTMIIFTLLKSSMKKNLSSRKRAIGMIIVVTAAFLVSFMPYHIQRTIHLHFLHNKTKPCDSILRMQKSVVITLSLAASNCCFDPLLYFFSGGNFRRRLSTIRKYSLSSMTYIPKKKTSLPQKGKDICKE
Test: Binding of ^3 H-Leukotriene D4 to Guinea Pig Lung Membranes (RBL)
Conditions: Concentration 1.00 E -4 M
Procedure: Additionally, the activity, of the compounds having the Formula I of the present invention is determined by the well known leukotriene receptor binding assay that is described by R. F. Bruns, W. J. Thomsen and T. A. Pugsley in Life Sciences, 33, 645 (1983) or the Herxheimer in vivo antiallergy test described in H. Herxheimer, J. Physiol. (London), Vol. 177, p. 251 (1952).
Binding of ^3 H-Leukotriene D4 to Guinea Pig Lung Membranes (RBL)
[14,15-^3 H]leukotriene D4 (^3 H-LTD4) (25 Ci/mmol and 40 Ci/mmol) is purchased from New England Nuclear. Unlabeled LTC4 is a gift of Ono Pharmaceuticals (Japan). LTC4, LTD4, and LTE4 are purchased as methyl esters from Paesel GmbH (Frankfurt, W. Germany). Concentrations of the Paesel leukotrienes are calculated from their absorbance at 280 nm. Leukotriene esters are saponified overnight under N2 in 3.3% potassium carbonate at room temperature. Tritiated leukotrienes are stored as received from New England Nuclear at -20° C. Ono LTC4 (5 μg/ml) is stored at -60° C. in phosphate buffer pH 6.8. Saponified Paesel leukotrienes are stored at -60° C. in 3.3% potassium carbonate (pH 9.0-9.5). Aliquots of leukotrienes are taken from stock solutions immediately after thawing, after which the stock solutions are immediately refrozen. 2-Amino-2-(hydroxymethyl)-1,3-propanediol (Tris) is Sigma pH 7.7 pre-set crystals, and dimethylsulfoxide is Aldrich Gold Label.
Preparation of crude lung membranes
Two pairs of lungs (1.3 g) from freshly sacrificed 300 g male guinea pigs (older animals gave substantially lower binding) from Kuiper Rabbit Farm, Gary, IN are disrupted with a Polytron PT 10 (setting 4) for 30 seconds in 20 ml ice-cold 50 mM Tris adjusted with HCl to pH 7.7 at 25° C. (Tris buffer), filtered through a single layer of gauze to remove connective tissue, and centrifuged at 50,000 xg for ten min. The pellet is resuspended by homogenization with a Polytron in 20 ml Tris buffer, centrifuged at 50,000 xg for ten min., resuspended, incubated at 37° C. for 30 minutes, and centrifuged again. The final pellet is resuspended in Tris buffer and either used fresh or stored at -70° C.
All incubations are in triplicate for 60 minutes at 25° C. in 12×75 mm polystyrene tubes containing 1 ml Tris buffer with 20 mg original tissue wet weight of guinea pig lung nmembranes, 0.2 nM ^3 H-LTD4 (6,000-11,000 cpm), 10 mM MgCl2, and 1% dimethylsulfoxide Leukotrienes are diluted in Tris buffer. All other test compounds dissolved at 10 mM in dimethylsulfoxide on the same day as the experiment, and diluted in dimethylsulfoxide to 100× the final incubation concentration. Control incubations receive an equal volume (10 μl) of dimethylsulfoxide; the resulting concentration of dimethylsulfoxide had no effect on binding. ^3 H-LTD4 is diluted to 2 nM in Tris buffer. The membrane suspension (20 mg/0.89 ml) contains sufficient MgCl2 to give 10 mM final concentration in the incubation. […] All additions are performed at 0° C. Immediately after the last addition, the incubation is initiated by agitating the rack of tubes on a vortex mixer and warming to 25° C. in a water bath. Tubes are vortexed at least once more during the incubation to ensure that the membranes remained suspended. Incubations are terminated after 60 minutes by filtering under reduced pressure through 25 mm Whatman GF/B filters followed by rapid washing three times with 4 ml of ice-cold Tris buffer. Filters are added to scintillation vials with 8 ml Formula 947 (New England Nuclear), left overnight, shaken, and the radioactivity counted in a scintillation counter (efficiency 40%). Nonspecific binding, defined as binding of ^3 H-LTD4 in the presence of 100 nM LTC4, is 300-500 cpm for all lots of ^3 H-LTD4. Binding to the filters in the absence of tissue is about 100 cpm, and is not affected by unlabeled LTC4. Specific binding, defined as total binding minus nonspecific binding, varied considerably from lot to lot of ^3 H-LTD4. […]

SMILES	% Inhibition (RBL) [%]
O=C(Nc1ccc(CCc2ccc(Cl)c(Cl)c2)cc1)C(=O)c1sc2ccccc2c1O [Example 136, Benzo[b]thiophene-2-acetamide, N-[4-[2-(3,4-dichlorophenyl)ethyl]phenyl]-3-hydroxy-α-oxo]	11.0
COc1c(C(=O)Nc2ccc(CCc3ccc(Cl)c(Cl)c3)cc2)sc2ccccc12 [Example 147, Benzo[b]thiophene-2-carboxamide, N-[4-[2-(3,4-dichlorophenyl)ethyl]phenyl]-3-methoxy]	3.0
